Data from the RNAGym collection of RNA variant scans (doi:10.1073/pnas.2313332121).
Variants at the background level are over-represented here.

B1: TPR 5TU (parent)
chain: GGAUCUUCUCGAUCUAACAAAAAAGACAAAUCUGCCACAAAGCUUGAGAGCAUCUUCGGAUGCAGAGGCGGCAGCCUUCGGUGGCGCGAUAGCGCCAACGUUCUCAACUAUGACACGCAAAACGCGUGCUCCGUUGAAUGGAGUUUAUCAUG

Variants of: B1
Assay: polymerase ribozyme fitness, log enrichment relative to wild type (log ratio); higher = more active; in vitro selection for triplet polymerase activity
Outline: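 Streptavidin-bead capture of gel-excised extended constructs, followed by RT-PCR, closed a single triplicate in vitro selection round. That round began by annealing PCR-built, transcribed mutant libraries of each subunit of a heterodimeric triplet polymerase ribozyme with a biotinylated primer, the partner subunit and triplets, then incubating them frozen at −7 °C. After Illumina sequencing of inputs and outputs, genotypes needed ≥10 input reads and ≥1 read per output. Fitness is the base-2 logarithm of genotype enrichment over wild-type enrichment, using inverse-variance-weighted replicate averages.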

Row | Variant | polymerase ribozyme fitness (log ratio)
1 | GGAUCUUCUCGAUCUAACAAAAAAGACAAAUCUGCCACAAAGCUUGAGAGCAUCUUCGGAUGCAGAGGCGGCAGCCUUCGGUGGAGCGAUUGCGCCAACGUUCUCAAGUAUGACACGCAAAACGCGUGCUCCGUUGAAUGGAGUUUAGCAUG | ≤ -4.2
2 | GGAUCUUCUCGAUCUAACAAAAAAGACAAAUCUGCCACAAAGCUUGAGAGCAUCUUCGGAUGCAGAGGCGGCAGCCUUCGGUGGAGCGAUAGCGCCAAGGUUCUCAACUAUGACACGCAAAACGCGUGCUCCGUUGAAGGGAGUUGAUCAUG | ≤ -4.2
3 | GGAUCUUCUCGAUCUAACAAAAAAGACAAAUCUGCCACAAAGCUUGAGAGCAUCUUCGGAUGCAGAGGCGGCAGCCUUCGGUGGAGCGAUAGCGCCAACGUUCUCAACUAUGACACGCAAAACGCGUGCUCCGUUGAAUGGCGUUUAUCAUG | -3.23
4 | GGAUCUUCUCGAUCUAACAAAAAAGACAAAUCUGCCACAAAGCUUGAGAGCAUCUUCGGAUGCAGAGGCGGCAGCCUUCGGUGGAGCGAUAGCGCCAACGUUCUCAACUAUGACACGCAAAACGCGUGCUCCGUUGUAUGGAGUUUAUCAUG | ≤ -4.2
5 | GGAUCUUCUCGAUCUAACAAAAAAGACAAAUCUGCCACAAAGCUUGAGAGCAUCUUCGGAUGCAGAGGCGGCAGCCUUCGGUGGAGCGAUAGCGACAACGUUCUCAACUAUGACACGCAAAACGUGUGCUCCGUUGAAUGGAGUUUAUCAUG | -1.39
6 | GGAUCUUCUCGAUCUAACAAAAAAGACAAAUCUGCCACAAAGCUUGAGAGCAUCUUCGGAUGCAGAGGCGGCAGCCUUCGGUGGAGCGAUCGCGCCAACGUUCUCAACUAUGACACGCAAAACGCGUGCUCCGUUGAAUGGAGUUUGUCAUG | ≤ -4.2
7 | GGAUCUUCUCGAUCUAACAAAAAAGACAAAUCUGCCACAAAGCUUGAGAGCAUCUUCGGAUGCAGAGGCGGCAGCCUUCGGUGGAGGGAUAGCACCAACGUUCUCAAGUAUGACACGCAAAACGCGUGGUCCGUUGAAUGGAGAUUAUCAUG | ≤ -4.2
8 | GGAUCUUCUCGAUCUAACAAAAAAGACAAAUCUGCCACAAAGCUUGAGAGCAUCUUCGGAUGCAGAGGCGGCAGCCUUCGGUGGAGCGAUGGCGACAUCGUUCUCAACUAGGACACGCAAAACGCGUGCUCCGUUGAAUGGAGUUUAUCAUG | ≤ -4.2
9 | GGAUCUUCUCGAUCUAACAAAAAAGACAAAUCUGCCACAAAGCUUGAGAGCAUCUUCGGAUGCAGAGGCGGCAGCCUUCGGUGGAGCGAUAGUGCCAACGUUCUCAACUAUGACACGCCAAACGCUAGCUCCGUUGAAUGGAGUUUAUCAUG | ≤ -4.2
10 | GGAUCUUCUCGAUCUAACAAAAAAGACAAAUCUGCCACAAAGCUUGAGAGCAUCUUCGGAUGCAGAGGCGGCAGCCUUCGGUGGAGCGAUAGCGCCAACGUUCUCAACUAUGACACGCAAAACGUGUGCUCCGUUGAAUGGAGUUUAUCAUG | -1.7
11 | GGAUCUUCUCGAUCUAACAAAAAAGACAAAUCUGCCACAAAGCUUGAGAGCAUCUUCGGAUGCAGAGGCGGCAGCCUUCGGUGGAGCGAUAGCGGCAACGUUCUCAACUAUGACGCGCAAAACGCGUGCUCCGUUGAAUGGAGUUUAUCAUG | -3.81
12 | GGAUCUUCUCGAUCUAACAAAAAAGACAAAUCUGCCACAAAGCUUGAGAGCAUCUUCGGAUGCAGAGGCGGCAGCCUUCGGUGGAGCGAUAGCGCCAACGUUCUCAACUAUGACAAGCAAAACGCGUGCUCCGUUGAAUGGAGUUUAUCAUG | 0.744
13 | GGAUCUUCUCGAUCUAACAAAAAAGACAAAUCUGCCACAAAGCUUGAGAGCAUCUUCGGAUGCAGAGGCGGCAGCCUUCGGUGGAGCGAUAGCGCUAACGUUCUCAACUAUGACACGCAAAACGCGUACUCCGUUGAAUGGAGUUUAUCAUG | -4.19
14 | GGAUCUUCUCGAUCUAACAAAAAAGACAAAUCUGCCACAAAGCUUGAGAGCAUCUUCGGAUGCAGAGGCGGCAGCCUUCGGUGGAGCGAUAGCGCCAACGUUCUCAACUAUGACACGCAUAACGCGUGCUCCGUUGAAUGGAGUUUAUCAUG | -1.7
15 | GGAUCUUCUCGAUCUAACAAAAAAGACAAAUCUGCCACAAAGCUUGAGAGCAUCUUCGGAUGCAGAGGCGGCAGCCUUCGGUGGAGCGAUAGCGCUAACGUUCUCAACUAUGACACGCAAAACGCGUGCUCAGUUGAAUGGAGUUUAUCAUG | -3.67
16 | GGAUCUUCUCGAUCUAACAAAAAAGACAAAUCUGCCACAAAGCUUGAGAGCAUCUUCGGAUGCAGAGGCGGCAGCCUUCGGUGGAGCGAUAGCGCCAACGUUCUCAACUAUGACACGCAAAACGCGUGCUCCGUUGAAUGGAGUUUAUCGUG | -2.41
17 | GGAUCUUCUCGAUCUAACAAAAAAGACAAAUCUGCCACAAAGCUUGAGAGCAUCUUCGGAUGCAGAGGCGGCAGCCUUCGGUGGAGCGAUAGCGCCAAAGUUCUCAACUAUGACACGCAAAACGCGUGGUCCGGUGAUUGGAGUUUAUCAUG | ≤ -4.2
18 | GGAUCUUCUCGAUCUAACAAAAAAGACAAAUCUGCCACAAAGCUUGAGAGCAUCUUCGGAUGCAGAGGCGGCAGCCUUCGGUGGAGCGAUAGCACCAACGUUCUCAACUAUGACACGCAAAACGCGAGCUCCGUUGAAUGGAGUUUAUCAUG | ≤ -4.2
19 | GGAUCUUCUCGAUCUAACAAAAAAGACAAAUCUGCCACAAAGCUUGAGAGCAUCUUCGGAUGCAGAGGCGGCAGCCUUCGGUGGAGCGAUAGCGCCAACGUUCUCAACUAUGACACGAAAAACGCGUGCUCCGUUGAAUGGAGUUUAUCAUG | -0.973
